Reference: the supplement of paper PMC9334596
Values joined by “and” are separate entries in the source; they are usually repeats but may differ in a detail not shown here. Equal values may be shown once. In all, about 5,300 compounds were measured (“PER2::LUC luminescence relative to vehicle control”: median about 0.96, highest 2% from about 1.3 on). The list shows a part of the results.

Tested on: mPer2Luc MEF
Test: PER2::LUC luminescence relative to vehicle control (fold of vehicle); higher = higher PER2::LUC reporter signal
Conditions: 10 µM
Procedure, shortened: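 The value is PER2::LUC luminescence expressed as fold of vehicle control. Mouse embryonic fibroblasts carrying the mPer2Luc reporter were seeded at ~3000 cells per well in 384-well plates and grown in DMEM with 10% FBS at 37 °C and 5% CO2. Compounds from commercial libraries were added at 10 μM 48 h after seeding, and luminescence was read with the ONE-Glo luciferase assay system 24 h and 30 h after treatment, followed by an alamarBlue viability assay.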

Row | SMILES | PER2::LUC luminescence (time after treatment 24 h) | PER2::LUC luminescence (time after treatment 30 h)
1 | COc1cc(/C=C/C(N)=O)cc(OC)c1OC | 1.06 and 0.932 | 1.07 and 0.886
2 | CN[C@@H](C)C(=O)N[C@H]1CN(C(=O)CC(C)C)CC[C@H]2CC[C@@H](C(=O)NC(c3ccccc3)c3ccccc3)N2C1=O | 1.1 | 1.16
3 | COc1ccccc1N1CCN(CCCCN2C(=O)c3ccccc3C2=O)CC1 | 0.984 and 0.869 | 1.08 and 0.813
4 | CN1[C@@H]2CC[C@H]1C[C@@H](OC(=O)c1c[nH]c3ccccc13)C2 | 0.931 and 0.864 | 0.967 and 0.93
5 | Cc1cccc(C)c1OCC(C)N (centres undefined) | 1.07 and 0.923 | 0.872 and 0.857
6 | C/C=C/C(=O)N1C(=O)OC[C@@H]1Cc1ccccc1 | 0.864 | 0.846
7 | COc1ccccc1OCC(O)CO (centres undefined) | 0.827 | 0.929
8 | Nc1nc(CC(=O)Nc2ccc(CCNC[C@H](O)c3ccccc3)cc2)cs1 | 0.958 | 0.9
9 | NC[C@@H]1O[C@H](O[C@H]2[C@@H](O)[C@H](O[C@@H]3[C@@H](O)[C@H](N)C[C@H](N)[C@H]3O[C@H]3O[C@H](CO)[C@@H](O)[C@H](O)[C@H]3N)O[C@@H]2CO)[C@H](N)[C@@H](O)[C@@H]1O | 1.12 | 1.13
10 | CC[C@]1(O)C[C@H]2CN(CCc3c([nH]c4ccccc34)[C@@](C(=O)OC)(c3cc4c(cc3OC)N(C=O)[C@H]3[C@@](O)(C(=O)OC)[C@H](OC(C)=O)[C@]5(CC)C=CCN6CC[C@]43[C@@H]65)C2)C1 | 0.347 | 0.366
11 | COc1cc(C)c2c(c1C=O)Oc1c(c(C)c(O)c3c1C(O)OC3=O)OC2=O (centres undefined) | 0.967 | 0.95
12 | CC(=O)[C@H]1CC[C@H]2[C@@H]3C=CC4=CC(=O)CC[C@@]4(C)[C@@H]3CC[C@]12C | 1.15 | 1.07
13 | CCOc1ccc(Nc2nc(-c3c(C)nc4ccccn34)cs2)cc1 | 1.07 | 1.02
14 | Clc1ccc(Nc2nc3ccccc3c3nc(C4CCCCC4)[nH]c23)cc1Cl | 0.84 | 0.867
15 | Cc1cc(=O)[nH]c(=S)[nH]1 | 0.733 | 0.882
16 | CC1(C)C2CCC1(C)C(O)C2 (centres undefined) | 1.1 | 0.997
17 | Cc1cc(/C=C/C#N)cc(C)c1Nc1ccnc(Nc2ccc(C#N)cc2)n1 | 0.337 | 0.424
18 | C=C1C(=O)[C@]23[C@H](O)[C@H]1CC[C@H]2[C@@]12CO[C@]3(O)[C@@H](O)[C@@H]1C(C)(C)CC[C@@H]2O | 1.21 | 0.749
19 | NC(=O)c1ccc2[nH]ccc2c1 | 1.05 | 0.929
20 | CCCCC[C@H](O)/C=C/C1=C(CCCCCCC(=O)O)C(=O)CC1 | 1.07 | 1.01
21 | CCOc1cc2ncc(C#N)c(Nc3ccc(F)c(Cl)c3)c2cc1NC(=O)/C=C/CN(C)C | 0.424 | 0.146
22 | CC1=CC[C@@]2(C)CC[C@@](O)(C(C)C)[C@@H]2[C@@H](OC(=O)c2ccc(O)cc2)C1 | 1.08 | 1.15
23 | CCCc1c(-c2ccc(O)cc2)nn(-c2ccc(O)cc2)c1-c1ccc(O)cc1 | 1.05 | 0.928
24 | Cc1oc(=O)oc1COC(=O)C1=C([C@H]2CCCO2)S[C@@H]2[C@@H]([C@@H](C)O)C(=O)N12 | 1.04 | 1
25 | Oc1c(Cl)cc(Cl)c(Cl)c1Cc1c(O)c(Cl)cc(Cl)c1Cl | 0.616 | 0.54
26 | Cc1c(N(C)C)c(=O)n(-c2ccccc2)n1C | 0.972 and 0.983 | 0.968 and 0.942
27 | CCN(CC)CCNC(=O)c1c(C)[nH]c(/C=C2\C(=O)Nc3ccc(F)cc32)c1C | 0.363 | 0.37
